Measured values: the RNAGym collection of RNA variant scans (doi:10.7554/elife.90254)
Read counts are not given, so values of variants with three or more changes are uncertain.

B1: LINE1-mini (parent)
chain: GGCAGAGCUCAACACAGCGUGGCAAAGUGGCUGUGGCUAGACUGCC

Variants of: B1
Experiment: self-cleavage, relative activity (ratio to wild type); higher = more cleavage; in vitro, sequencing; the parent is a self-cleaving ribozyme

Row | Variant | self-cleavage
1 | A11U G19C G29A G40A | 0.01
2 | A12C G17C C23A | 0.02
3 | A12G A25C U43C | 0.05
4 | A11U C18G C37G G40U | 0.01
5 | A12C G21A G35U | 0.02
6 | A12C U28G U34G C46U | 0.02
7 | A12C C15U A25U | 0.03
8 | A12C C18G C23U G35A | 0
9 | A12U G29C U32G | 0.02
10 | A12U A25C C45G | 0.1
11 | A12G C15A G19A G36C A41G | 0.01
12 | A12G A24G C37A G44U | 0.01
13 | A12G G30U C31U G35C G40U | 0.04
14 | A12U U20C G36A | 0.02
15 | A12U C23G G36U G40A C42G | 0.15
16 | A12U A14G C15A G21U C37G U38A G40U | 0.01
17 | A12C U38C C46G | 0.01
18 | A12C C23U G33C G40U | 0
19 | A12U C18A G21U G44A | 0.05
20 | A12C A16G C18U G19U G27A G29A G35A | 0.06
21 | A12U G17C C18A G30U U32A | 0.01
22 | A12C C13U A25C G27U G29C U34C | 0.01
23 | A12C C18U A25U | 0.04
24 | A12U U20C C23A A26U U32C | 0.02

Row | Variant | self-cleavage
25 | A12C G19C C37A U38A C46U | 0
26 | A12U G17A C18U C31G G36C | 0.01
27 | A12G A14C U20G A39G | 0.11
28 | A11U G19U A26C G29A | 0.06
29 | A12G G19A G27A | 0.01
30 | A12U C31A C45A | 0.02
31 | A12U U20A G33U | 0.03
32 | A12U A16U U20G A41C | 0
33 | A11U G22U U43A C46G | 0.01
34 | A12G C18G G27C | 0.02
35 | A12C A14G U34C G35C | 0.03
36 | A12C G27U G30U | 0.08
37 | A12G G40C C42U | 0.06
38 | A12G G17U C23A | 0.04
39 | A12G G17U G21A C46U | 0.12
40 | A12G G21U G29U G30A | 0.03
41 | A11U G21C A25U G36A | 0.01
42 | A11U G35C C37U U38G | 0
43 | A12G U20C U43A G44U | 0.01
44 | A11U G21A U34C G40C | 0.02
45 | A12G C13A U20A A24U G27A U28G G33U C42U | 0.09
46 | A12G U20C C45U | 0.02
47 | A11U G17U A26G | 0.01
48 | A12U A14G A16U G27A G29A C31G | 0.03

Row | Variant | self-cleavage
49 | A12U G21U G29A | 0.11
50 | A12C C13A G17U A26C | 0
51 | A12G C13U G27U U28C | 0.02
52 | A12G U28A C37A | 0.07
53 | A11U C23U U43A | 0.01
54 | A12U G22A U38A A41C | 0.01
55 | A12C C13A C18U | 0.01
56 | A12C G17U A25U A26U U28G U34A | 0.05
57 | A12U C13A G17U U20A G22U G40A | 0.03
58 | A12U G30A C46U | 0.25
59 | A12G C18G G27A U43A G44A | 0.03
60 | A12U A16U U20G | 0.03
61 | A12G C15G G19A G22C | 0.02
62 | A12U G21C U28C U34G | 0.02
63 | A12C C15U A25G G29C | 0.08
64 | A12U G33U A41G | 0.01
65 | A11U G30A G33U | 0.02
66 | A12U G19A G21U A41C | 0.01
67 | A12G U34G U38A | 0.02
68 | A12G A25C C46G | 0.03
69 | A12C U20A G29C G30C C45U C46G | 0.01
70 | A12G C23G A25C U34A | 0.04
71 | A12U A39G G40U | 0.14
72 | A12U C31G G40A | 0.03

Row | Variant | self-cleavage
73 | A11U C18A G21U | 0.35
74 | A12G G17A C23A G35A | 0.01
75 | A12G G21A C23G C31G | 0.01
76 | A12C U32A U38A | 0.01
77 | A11U C23A C45G | 0.03
78 | A12G C13U A16C C31G | 0.05
79 | A12U A24G C45U | 0.24
80 | A11U C23U U32G U34G | 0.01
81 | A12U G27U C31A U32C C45U | 0.06
82 | A12G A16C A25C C37U | 0.09
83 | A12U C13U G36U G40A | 0.09
84 | A12U U20G G27A C31U | 0.11
85 | A12C C13U C15U | 0.04
86 | A12C G40C C45G | 0
87 | A12C G21A G35U G36U | 0.01
88 | A12U A24G C42A | 0.03
89 | A12U A24G C42G | 0.02
90 | A12G G29U U32C G35A | 0.14
91 | A12G G19A U43A | 0
92 | A12G G30C C45A | 0.04
93 | A12C C37A U38G G40U C46U | 0
94 | A12U A24C U38A | 0.03
95 | A12G U20G G35C G36U U38G A39C | 0
96 | A12G G19U U28G | 0.01

Row | Variant | self-cleavage
97 | A11U G17U U20C G27C G30U | 0.02
98 | A11U G21U U28G U38A | 0.01
99 | A12C A16G G17C C37A | 0.02
100 | A12G C13G C15A G17U U20C C45G | 0.02
101 | A11U G22U G29C C42G | 0
102 | A12G C31U G44U | 0.02
103 | A12U C31A G36U | 0.07
104 | A12G A16U G19A G22U | 0.04
105 | A11U G30C G40A | 0.01
106 | A12U C23G U34G G40A | 0.01
107 | A12C C13U G29A | 0.03
108 | A12G G19A G40A | 0.04
109 | A12C U20A A24G | 0.02
110 | A11U C42U C45A | 0
111 | A12C G17C C18U G27A | 0.02
112 | A12C C18U G30A A41C | 0.02
113 | A12C U20A A26C U32G G33C U34C G36C | 0
114 | A11U C18G G19U U38C | 0.01
115 | A11U G29A G33C | 0.01
116 | A11U G21U A26G | 0.08
117 | A12G A25G G40A C46U | 0.03
118 | A12U U20G G22A A41G G44A | 0.03
119 | A12G G17U U34A | 0.02
120 | A12U C13G A16U U28C | 0.03

Row | Variant | self-cleavage
121 | A12U G17C G22A C31G G36C G40U | 0
122 | A12U C23U C37U | 0
123 | A12G C23A U38A G44A | 0.01
124 | A12C A14G G17A G21A C23G C46A | 0.02
125 | A12U C15U U28G G36A | 0
126 | A12G G17U G33U | 0.05
127 | A12C G21U G27U U32G | 0.01
128 | A12U A14U G29U G30A U34G G35U A41G | 0.02
129 | A11U G21A A25C U28A G30A | 0.27
130 | A11U U20A G35U | 0.02
131 | A12U G40C G44A | 0
132 | A12U G22U C23A G36C C37A | 0.02
133 | A12C G36U A39U | 0.02
134 | A11U C37A G44C C45A | 0.01
135 | A12C A25G G29U C37A A41U | 0
136 | A12C A14U G33A A41U | 0.01
137 | A12C G19C G29C | 0.02
138 | A12G A14G U20C A26C G36U | 0.05
139 | A11U G22C A41G | 0.02
140 | A12G A16G G36A U38A | 0
141 | A12G U20A G27A | 0.02
142 | A12U G36A C45A | 0
143 | A12G G17A A25U G35U G36A U43A | 0.5
144 | A12G C13U A16G U20A G21A A25C | 0.01

Row | Variant | self-cleavage
145 | A12C G21U A24C U32G | 0.02
146 | A12G C18A G30A | 0.06
147 | A12G G27U G33C G40A C46U | 0.04
148 | A12U C18G G19C | 0.82
149 | A12C G21U G29U G35U G36A | 0.28
150 | A12C A16G C23G G29A | 0.03
151 | A12U G22U A26U G29U U43C | 0.13
152 | A12U C18A U28G | 0.03
153 | A12C G40U C45G | 0.05
154 | A12G C13G U20A G21U A24G G36U | 0.2
155 | A12U A16G U20C U38C C42G | 0.02
156 | A11U C15U G29C C31G G35A C37A | 0
157 | A12C C13A C15A | 0.04
158 | A12G G22U G30C | 0.03
159 | A11U C15U G30U G36U C42A U43C C45A | 0.01
160 | A12U A16C C23A G27C | 0.23
161 | A12G C15A G21U | 0.04
162 | A11U C42A U43C | 0.01
163 | A12G G19U G40A | 0.03
164 | A11U C31U G40C | 0.01
165 | A11U G21A A26U | 0.67
166 | A12G G19U C31A U38G | 0.02
167 | A12G C13U C18U G19C C31A | 0.04
